# Source: publication PMC4336329 (PLoS ONE, 2015)
# Hit rate of the full screen: of about 310,000 compounds, about 2,200 (0.71%) showed an effect of 50% or more. Effects have a minus sign here. The list shows a part of the results.
# Biological target: human ether-à-go-go-related gene (hERG) potassium channel (human, UniProt Q12809)
# Experiment: primary screen, population patch clamp on CHO cells stably expressing hERG
# Chain of human ether-à-go-go-related gene (hERG) potassium channel (Q12809 whole entry, looked up): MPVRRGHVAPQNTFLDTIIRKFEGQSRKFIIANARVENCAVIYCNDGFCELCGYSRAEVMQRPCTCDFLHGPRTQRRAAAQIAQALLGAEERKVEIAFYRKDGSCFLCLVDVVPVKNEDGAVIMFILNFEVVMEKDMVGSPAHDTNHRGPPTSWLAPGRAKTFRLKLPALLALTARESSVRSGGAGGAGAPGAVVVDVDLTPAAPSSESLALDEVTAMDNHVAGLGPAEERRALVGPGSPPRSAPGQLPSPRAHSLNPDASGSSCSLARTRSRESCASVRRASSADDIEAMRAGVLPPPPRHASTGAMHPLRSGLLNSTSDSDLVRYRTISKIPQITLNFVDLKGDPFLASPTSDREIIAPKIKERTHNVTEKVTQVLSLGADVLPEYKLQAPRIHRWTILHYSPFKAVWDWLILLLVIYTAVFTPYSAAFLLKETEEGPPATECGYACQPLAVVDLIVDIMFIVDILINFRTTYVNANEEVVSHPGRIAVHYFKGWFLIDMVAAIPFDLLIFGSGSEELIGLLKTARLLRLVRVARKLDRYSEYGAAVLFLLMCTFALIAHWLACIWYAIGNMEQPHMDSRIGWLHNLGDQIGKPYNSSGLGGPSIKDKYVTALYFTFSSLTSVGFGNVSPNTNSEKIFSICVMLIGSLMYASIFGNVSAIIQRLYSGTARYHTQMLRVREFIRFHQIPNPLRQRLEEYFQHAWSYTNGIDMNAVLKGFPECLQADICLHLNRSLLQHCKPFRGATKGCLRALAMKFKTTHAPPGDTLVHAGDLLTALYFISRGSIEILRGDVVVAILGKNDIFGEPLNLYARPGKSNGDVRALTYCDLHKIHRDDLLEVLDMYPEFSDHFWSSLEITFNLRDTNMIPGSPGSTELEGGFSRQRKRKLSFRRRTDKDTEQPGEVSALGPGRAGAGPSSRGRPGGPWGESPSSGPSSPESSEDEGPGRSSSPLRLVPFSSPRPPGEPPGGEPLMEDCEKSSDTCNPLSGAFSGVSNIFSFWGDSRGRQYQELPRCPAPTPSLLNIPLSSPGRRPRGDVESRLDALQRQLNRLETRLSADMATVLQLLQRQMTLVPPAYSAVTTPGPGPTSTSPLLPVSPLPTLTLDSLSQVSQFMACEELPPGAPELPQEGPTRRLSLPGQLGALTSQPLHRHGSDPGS
row,SMILES,"hERG current change (%, negative = inhibition) at 1uM"
1,O=C(NCc1ccc(Cl)cc1)C1CCN(S(=O)(=O)c2cccc3nonc23)CC1,8.68%
2,CC(=O)Nc1nnc(SCC(=O)N2C(C)CCCC2C)s1 (centres unmarked),13.1%
3,N#CC1=C(N)Oc2cc(O)c(Cl)cc2C1c1cccnc1 (centres unmarked),0.0661%
4,CCc1ccc(CCC(=O)Nc2sc(C)c(C)c2C(=O)OC)o1,6.99%
5,CCN(CC)C(=O)C(=O)Nc1ccc(OC)c(Cl)c1,10.3%
6,CC(=O)Nc1ccc(S(=O)(=O)NC2(C(F)(F)F)C(=O)NC(C)=C2C#N)cc1 (centres unmarked),10.4%
7,O=c1oc2ccccc2c(O)c1C=NCc1ccccn1,3.75%
8,Cc1ccc(NC(=O)Cn2nnc(C(=O)NCc3ccco3)c2N)c(C)c1,10.7%
9,Cc1ccc(S(=O)(=O)NC(CC(C)C)C(=O)N2CCC(C)CC2)cc1 (centres unmarked),8.25%
10,Clc1cccc(Cl)c1C1N2CCCN12 (centres unmarked),11.2%
11,Cl.O=C(CCCN1CCc2[nH]c3ccc(F)cc3c2C1)c1ccc(F)cc1,-28.9%
12,CC(C)(C)NC(=O)/C=C/c1cccs1,17.1%
13,S=C(NCCc1ccccc1)Nc1ccc(Br)cc1,9%
14,CCOc1ccc(S(=O)(=O)N/N=C2/CCCC(=O)C2)cc1,6.43%
15,CCCCCCC(=O)OCC(=O)c1ccc2c(c1)NC(=O)CO2,15%
16,Cc1c(NC(=O)CSc2nnc3c4ccccc4n(CCc4ccccc4)c3n2)c(=O)n(-c2ccccc2)n1C,7.75%
17,CC(C)Nc1nc(Cl)nc(Nc2ccccc2)n1,8.51%
18,Cn1cc(CCNC(=O)CC2C(=O)NCCN2CC(c2ccccc2)c2ccccc2)cn1 (centres unmarked),11.4%
19,COc1ccc(N2CCN(c3n[nH]c(N)n3)CC2)cc1,10.1%
20,C/C(=N\NC(=O)c1cccc(S(=O)(=O)N2CCCC2)c1)c1cccs1,5.16%
21,CSc1cccc(NC(=S)N(CCCN2CCCC2)Cc2cccn2Cc2ccc(Cl)cc2)c1,6.94%
22,CCC1(c2ccccc2)C(=O)N(C(=O)OC(C)(C)C)N1C(=O)OC(C)(C)C (centres unmarked),20.4%
23,O=C(c1cnn2cccnc12)N1CCN(Cc2ccc3c(c2)OCO3)CC1,14.9%

row,SMILES,"hERG current change (%, negative = inhibition) at 1uM"
1,CC(C)(C)C(=O)NC1CCSC1=O (centres unmarked),13%
2,COc1cccc(/C=N/NC(=S)NCc2ccco2)c1OC,11.3%
3,Cl.OC1CN=C2C=CC=CN2C1 (centres unmarked),0.821%
4,CC(=O)c1c(C)nc2ccccc2c1N,9.49%
5,COc1ccc(C(=O)NCC(=O)OCc2csc(-c3ccccc3)n2)cc1,5.94%
6,COc1ccc(NC2=NCC(=O)N2c2ccccc2)c(OC)c1.Cl,15.5%
7,COc1ccc(S(=O)(=O)NCC(=O)N(CC(=O)NCc2ccccc2)Cc2ccco2)cc1,4.13%
8,COc1nc(SC)nc(Cl)c1Cc1ccc(OC(C)C)cc1,4.15%
9,COc1cc(CN2CCN(C(=O)c3cccc4ccccc34)CC2)cc(OC)c1O.O=C(O)C(=O)O,7.5%
10,CCOC(=O)N1CCC(NC(=O)CCC(=O)N2CC(C)Oc3ccc(C)cc32)CC1 (centres unmarked),9.67%
11,O=C(NC1CCCCCC1)C1CC(=O)N(Cc2ccccc2)C1 (centres unmarked),7.39%
12,Cn1ncc(C#N)c1/N=C/N1CCOCC1,8.44%
13,COCCOC(=O)c1c(C)oc2ccc(NS(=O)(=O)c3ccc(C)cc3)cc12,-2.54%
14,CCCS(=O)(=O)C(=C1Nc2ccccc2N1)S(=O)(=O)CCC,8.96%
15,CCOc1cccc(OCCCCN2CCCCC2)c1,-3.79%
16,O=S(=O)(NCc1ccccc1)NCc1ccc(Cl)cc1Cl,12.7%
17,O=C(N/N=C/c1ccco1)Nc1ccccc1,10.3%
18,Cl.Nc1ccn([C@H]2C[C@H](O)[C@@H](CO)O2)c(=O)n1,12.8%
19,C#C[C@]1(O)CCC2C3CCC4=C/C(=N/OCC(=O)NC(C)C(=O)NC(CCSC)C(=O)O)CC[C@]4(C)C3CC[C@@]21C (some centres unmarked),14.4%
20,COc1cc(C(=O)NCCCCCCNC(=O)c2cc(OC)c(OC)c(OC)c2)cc(OC)c1OC,15.2%
21,CCC(Sc1ccc2nnc(-c3ccc(F)cc3)n2n1)C(=O)O (centres unmarked),-7.62%
22,CCOc1ccc(S(=O)(=O)N2CCCC(C(=O)NCc3ccncc3)C2)cc1Cl (centres unmarked),8.75%
23,CC1Cc2ccccc2N1C(=O)CSc1nn2c(=O)c(C(C)(C)C)nnc2s1 (centres unmarked),7.86%

row,SMILES,"hERG current change (%, negative = inhibition) at 1uM"
1,Nc1cccc(CN2CCCC2)c1,18%
2,CN(C(=O)c1ccccc1)c1ccccc1C(=O)NCCc1ccccc1,11.7%
3,Cc1[nH]c2ccccc2c1SCc1nnc(SCc2ccccc2)n1C,-3.14%
4,Cc1occc1C(=O)N(Cc1nc(-c2ccccc2)no1)C(C)C,-1.44%
5,O=[N+]([O-])c1cc([As](=O)(O)c2ccc(O)c([N+](=O)[O-])c2)ccc1O,10.9%
6,CC1=NC2(CCCc3c2no[n+]3[O-])N(O)C1(C)C (centres unmarked),11.3%
7,CCOc1ccc(S(=O)(=O)N(CC(=O)NC2CCCCC2C)Cc2ccco2)cc1 (centres unmarked),0.208%
8,O=C(CCCCl)NC(=S)Nc1ccc(N2CCOCC2)cc1,11.1%
9,COc1cccc(C(=O)NC(=S)Nn2cnnc2)c1OC,7.89%
10,CN1C(=O)CC(N2CCN(c3ncccn3)CC2)C1=O (centres unmarked),9.73%
11,CCCn1c(N)c(C(=O)COC(=O)CCNS(=O)(=O)c2ccccc2F)c(=O)[nH]c1=O,10.3%
12,CS(=O)(=O)N(CC(=O)N1CCCC1)c1ccc(OCc2ccccc2)cc1,2.42%
13,Cc1ccc(C)c(CSc2nnc([C@@H]3CCCN3)o2)c1.Cl,12.1%
14,Cc1nc2ccc(C(=O)O)cc2nc1C,25.1%
15,O=C(NCC(=O)N1CCCCCCC1)c1cccc([N+](=O)[O-])c1,10.8%
16,CSc1ncccc1C(=O)OCc1cccc([N+](=O)[O-])c1,-0.11%
17,Cc1ccc(S(=O)(=O)c2c(C)nn(C(C)(C)C)c2OC(=O)c2cccs2)cc1,-3.42%
18,O=c1nc(-c2ccccc2)n(-c2ccc(Cl)cc2)[nH]1,10.7%
19,O=C(CC(Nc1ccccc1Cl)C(=O)O)c1ccccc1 (centres unmarked),9.92%
20,COc1ccc(N2C(=O)CSC2c2ccccc2)cc1 (centres unmarked),10.8%
21,COc1ccc2oc(C(=O)NNC(=O)c3ccc(F)cc3)c(C)c2c1,22.5%
22,CC(C)(C)NC(=O)Cn1c(=O)oc2cc(S(=O)(=O)N3CCc4ccccc43)ccc21,13.7%
23,Cc1cccc(CCNC(=O)C2CCCN(S(=O)(=O)c3cnc[nH]3)C2)c1 (centres unmarked),5.05%

row,SMILES,"hERG current change (%, negative = inhibition) at 1uM"
1,COc1ccccc1NNC(=O)c1cccnc1Oc1ccccc1,11.3%
2,O=C(Nc1c2c(nn1-c1ccccc1)CS(=O)C2)c1ccc(Br)o1 (centres unmarked),4.77%
3,Cc1cc(N2CCOCC2)nc(SCC(=O)OCc2ccccc2)n1,-2.46%
4,O=C(OCc1nnc(-c2ccccc2)o1)c1ccc(-n2cnnn2)cc1,8.86%
5,COC(=O)N1CCc2c(sc(NC(=O)C3COc4ccccc4O3)c2C(N)=O)C1 (centres unmarked),12.9%
6,CN1C(=S)N(c2cccnc2)C(=O)/C1=C\c1ccc(C(C)(C)C)cc1,11.6%
7,Cc1ccc(N2CCN(C(=O)N3CCOCC3)CC2)c(C)c1,8.6%
8,COc1ccc(/C=N/NC(=O)c2cccs2)c2ccccc12,6.17%
9,Cc1ccc2cc(C#N)c(N3CCCN(S(=O)(=O)c4ccccc4)CC3)nc2c1C,1.93%
10,COc1ccc(N2C(=O)C(Cl)=C(N3CCCC3)C2=O)cc1,13%
11,O=C1OCc2ccc(NC(=O)C3CCCCC3)cc21,5.27%
12,Cc1ccccc1-c1nnc(SCCC(=O)N2CCOCC2)o1,11.2%
13,O=C(O)/C=C\C(=O)O.c1cc(CN2CCCCC2)cc(OCCCNc2nc3ccccc3s2)c1,-10.8%
14,COc1ccccc1N(Cc1ccccc1)S(=O)(=O)c1cccc(C(=O)NCC2CCCO2)c1 (centres unmarked),2.24%
15,Cc1ccc(C)c(Cn2c(=O)n(C)c(=O)c3sccc32)c1,11.8%
16,Cc1c(NC(=O)Nc2cccc(Cl)c2)c(=O)n(-c2ccccc2)n1C,9.11%
17,Cc1ccc(F)cc1NC(=O)CN1CCN(c2ccccn2)CC1,3.71%
18,CCOC(=O)C1=C(N)Oc2ccc3ccccc3c2C1c1cccc(O)c1 (centres unmarked),10.9%
19,O=C(CN1CCN(S(=O)(=O)c2ccc(F)cc2)CC1)NCC1(N2CCOCC2)CCCCC1,3.2%
20,Cc1nnc(SCC(=O)NCCN2C(=O)CSC2=O)s1,6.04%
21,CC(=O)N1CCN(C(=O)Cn2c(=O)oc3ccccc32)CC1,4.5%
22,CN(C)c1ccc(/C=N/NC(=O)c2ccc(-n3cnnn3)cc2)cc1,7.21%
23,O=C1c2ccccc2S(=O)(=O)c2cc(C(=O)N3CCC(C(=O)N4CCCCC4)CC3)ccc21,12.7%
